# From the supplement of paper PMC9446081
# The campaign covered roughly 39,000 compounds. About 220 (0.56%) showed activity. The list shows a part of the results.
# System: Escherichia coli K-12 BW25113
# Test: relative growth (OD600 normalised to plate interquartile mean) (fraction); higher = less growth inhibition, active = 0.2 or less
# Settings: 50 µM; LB; incubation time: overnight (16-24 h)
# 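Further: static incubation at 37 °C against the wild-type strain, values averaged over two biological replicates.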
row,Compound,relative growth
1,Cc1noc(C)c1S(=O)(=O)Nc1ccc2c(c1)C(=O)N([C@@H](C)CO)C[C@H](C)[C@H](CN(C)S(=O)(=O)c1cccs1)O2,inactive: 1.02
2,C[C@H]1CN([C@@H](C)CO)C(=O)Cc2cc(NC(=O)C3CC3)ccc2O[C@H]1CN(C)Cc1ccc2c(c1)OCO2,inactive: 0.971
3,Cc1ccc(S(=O)(=O)N[C@@H]2C=C[C@@H](CC(=O)NCCN3CCCCC3)O[C@@H]2CO)cc1,inactive: 1.07
4,COc1ccc(S(=O)(=O)Nc2ccc3c(c2)CC(=O)N([C@H](C)CO)C[C@H](C)[C@@H](CN(C)S(=O)(=O)c2c(C)noc2C)O3)cc1,inactive: 0.984
5,C[C@@H]1CN([C@H](C)CO)C(=O)c2cc(NC(=O)Nc3ccc(C(F)(F)F)cc3)ccc2O[C@@H](C)CCCCO[C@H]1CN(C)Cc1ccc(Cl)c(Cl)c1,inactive: 1.01
6,C[C@@H]1CN([C@@H](C)CO)C(=O)c2cccc(NC(=O)c3cnccn3)c2O[C@H]1CN(C)S(=O)(=O)c1ccccc1,inactive: 0.991
7,C[C@H]1CN([C@@H](C)CO)C(=O)c2cccc(NS(=O)(=O)c3cccs3)c2O[C@@H]1CN(C)S(=O)(=O)c1cn(C)cn1,inactive: 1.02
8,C[C@@H]1CN([C@H](C)CO)C(=O)c2cccc(NS(=O)(=O)c3cccs3)c2O[C@@H]1CN(C)Cc1ccncc1,inactive: 1.02
9,CO[C@H]1C[C@@H]2CC[C@@H](C)[C@@](O)(O2)C(=O)C(=O)N2CCCC[C@@H]2C(=O)O[C@H]([C@H](C)C[C@@H]2CC[C@@H](O)[C@H](OC)C2)CC(=O)[C@H](C)/C=C(\C)[C@@H](O)[C@@H](OC)C(=O)[C@H](C)C[C@H](C)/C=C/C=C/C=C/1C,inactive: 0.979
10,CC(C)NC(=O)Nc1ccc2c(c1)C(=O)N([C@H](C)CO)C[C@@H](C)[C@H](CN(C)Cc1ccc3c(c1)OCO3)O2,inactive: 0.984
11,O=C1O[C@@H](c2ccccc2)[C@@H](c2ccccc2)N2[C@@H](c3ccc(OCCO)cc3)[C@]3(C(=O)Nc4ccccc43)[C@@H](C(=O)Nc3nc4ccccc4s3)[C@H]12,inactive: 0.99
12,Cc1ccc(S(=O)(=O)N(C)C[C@H]2OCCCC[C@@H](C)Oc3ccc(NC(=O)CCCCCC(=O)Nc4ccccc4N)cc3C(=O)N([C@H](C)CO)C[C@@H]2C)cc1,inactive: 1
13,COc1ccc2c(-c3ccc(Cl)cc3)c(C)oc2c1,inactive: 0.93
14,C[C@H](CO)N1C[C@H](C)[C@@H](CN(C)Cc2ccc(-c3ccccc3)cc2)Oc2ccc(NC(=O)Cn3cnnn3)cc2C1=O,inactive: 1.02
15,C[C@@H]1CN([C@@H](C)CO)S(=O)(=O)c2ccc(C#Cc3ccncc3)cc2O[C@@H]1CN(C)S(=O)(=O)c1ccc(F)cc1,inactive: 1.03
16,C[C@H](CO)N1C[C@H](C)[C@H](CN(C)Cc2ccc(C(F)(F)F)cc2)Oc2ccc(NC(=O)Nc3ccc(F)cc3)cc2CC1=O,inactive: 1.02
17,C=CCN1[C@H](Cc2ccccc2)[C@@H](c2cn(CCCCNC(=O)C(=O)NC)nn2)Oc2ccccc2S1(=O)=O,inactive: 0.993
18,C[C@@H]1CN([C@H](C)CO)C(=O)c2cc(NC(=O)Nc3cccc4ccccc34)ccc2O[C@H]1CN(C)S(=O)(=O)c1cccs1,inactive: 1
19,Cc1ccc(S(=O)(=O)Nc2ccc3c(c2)C(=O)N([C@H](C)CO)C[C@@H](C)[C@H](CN(C)C(=O)NC2CCCCC2)OCCCC[C@@H](C)O3)cc1,inactive: 1.01
20,Cc1ccc(S(=O)(=O)N(C)C[C@H]2Oc3ccc(NS(=O)(=O)c4c(C)noc4C)cc3CC(=O)N([C@H](C)CO)C[C@H]2C)cc1,inactive: 1

row,Compound,relative growth
1,COc1ccc(C#Cc2cnc3c(c2)C(=O)N([C@H](C)CO)C[C@H](C)[C@H](CN(C)CC2CCOCC2)O3)cc1,inactive: 1.03
2,COCC(=O)N[C@@H]1C=C[C@@H](CC(=O)N2CCCCC2)O[C@@H]1CO,inactive: 0.984
3,O=C1COC2(CCN(C(=O)C3CCOCC3)CC2)CN1,inactive: 0.983
4,C[C@H]1CN([C@@H](C)CO)C(=O)c2cc(NC(=O)C3CCCCC3)ccc2O[C@H]1CN(C)S(=O)(=O)c1cn(C)cn1,inactive: 0.968
5,C[C@@H]1CN([C@H](C)CO)C(=O)c2cc(NC(=O)CCCN(C)C)ccc2O[C@H]1CN(C)Cc1ccccc1,inactive: 1.03
6,C[C@H](CO)N1C[C@H](C)[C@H](CN(C)Cc2ccc(C(=O)Nc3ccccc3N)cc2)Oc2ccc(NC(=O)NC3CCCCC3)cc2CC1=O,inactive: 1
7,C[C@@H]1CN([C@@H](C)CO)C(=O)c2cc(NC(=O)NC3CCCCC3)ccc2O[C@@H](C)CCCCO[C@H]1CN(C)C(=O)Nc1cccc2ccccc12,inactive: 1.04
8,C[C@@H]1CN([C@H](C)CO)C(=O)Cc2cc(NC(=O)C3CC3)ccc2O[C@H]1CN(C)S(=O)(=O)c1cccs1,inactive: 0.986
9,CNCC(O)c1cccc(O)c1.Cl (centres undefined),inactive: 1.04
10,NC[C@H]1CN(Cc2ccc(F)cc2)CCO1,inactive: 0.99
11,C[C@@H]1CN([C@@H](C)CO)C(=O)CCCn2cc(nn2)CO[C@@H]1CN(C)C(=O)Nc1cccc(C(F)(F)F)c1,inactive: 0.967
12,COc1ccc(NC(=O)N(C)C[C@H]2OCCCC[C@@H](C)Oc3ccc(NC(=O)C4CCCCC4)cc3C(=O)N([C@@H](C)CO)C[C@@H]2C)cc1,inactive: 0.974
13,COC(=O)C[C@H]1NCCNC1=O,inactive: 0.914
14,COc1ccc2c3c([nH]c2c1)[C@H](CO)N(C[C@]13CN(C1)S(=O)(=O)c1cccs1)C(=O)c1ccccc1,inactive: 1.02
15,C[C@H]1CCCCO[C@H](CN(C)C)[C@@H](C)CN([C@@H](C)CO)C(=O)c2cc(NS(=O)(=O)c3cn(C)cn3)ccc2O1,inactive: 0.983
16,C[C@@H]1CN([C@H](C)CO)C(=O)c2cc(NC(=O)c3ccncc3)ccc2O[C@H]1CN(C)S(=O)(=O)c1ccccc1,inactive: 0.999
17,N[C@@H]1CC[C@@H](CCn2cc(-c3cccc(F)c3)nn2)O[C@H]1CO,inactive: 1.02
18,CO[C@H]1CN(C)C(=O)c2cc(NS(C)(=O)=O)ccc2OC[C@H](C)N(C(=O)c2ccc3c(c2)OCO3)C[C@@H]1C,inactive: 1.04
19,Cc1ccc(S(=O)(=O)NCCC(=O)N2CCOCCOCCOCC2)cc1,inactive: 0.984
20,C[C@@](Cc1ccccc1)(NC(=O)CN)c1ccccc1,inactive: 0.988

row,Compound,relative growth
1,C[C@H](CO)N1C[C@H](C)[C@H](CN(C)S(=O)(=O)c2ccc(Cl)cc2)Oc2c(NC(=O)Nc3cccc4ccccc34)cccc2C1=O,inactive: 1
2,O=C(C[C@@H]1CC[C@H]2[C@@H](COC[C@@H](O)CN2S(=O)(=O)c2ccccc2)O1)N1CCc2ccccc2C1,inactive: 0.955
3,CCC(=O)N[C@H]1CC[C@@H](CC(=O)OC)O[C@H]1CO,inactive: 1
4,C[C@H]1CCCCO[C@H](CN(C)C(=O)Nc2ccc(C(F)(F)F)cc2)[C@@H](C)CN([C@@H](C)CO)C(=O)c2cc(NC(=O)c3ccccc3)ccc2O1,inactive: 1.05
5,COc1cccc(S(=O)(=O)N2C[C@@H](O)COC[C@H]3O[C@H](CC(=O)NCCCN4CCOCC4)CC[C@@H]32)c1,inactive: 0.989
6,COc1ccc(NC(=O)Nc2ccc3c(c2)C(=O)N([C@@H](C)CO)C[C@@H](C)[C@@H](CN(C)S(=O)(=O)c2ccccc2)OCCCC[C@H](C)O3)cc1,inactive: 1.01
7,CCOC(=O)C1=C(C)NC(C)=C(C(=O)OC)C1c1cccc([N+](=O)[O-])c1 (centres undefined),inactive: 0.765
8,Cc1noc(C)c1S(=O)(=O)N(C)C[C@H]1Oc2ccc(NC(=O)C3CCCCC3)cc2CC(=O)N([C@H](C)CO)C[C@@H]1C,inactive: 1.02
9,Cc1ccc(S(=O)(=O)Nc2cccc3c2O[C@H](CN(C)S(=O)(=O)c2ccccc2)[C@H](C)CN([C@H](C)CO)C3=O)cc1,inactive: 0.997
10,C[C@@H]1CN([C@H](C)CO)S(=O)(=O)c2ccc(-c3ccc(C(=O)N(C)C)cc3)cc2O[C@@H]1CN(C)C(=O)C1CCOCC1,inactive: 1.02
11,O=C(CCCCCNC(=O)OCc1ccc(CO[C@@H]2C[C@H](c3ccccc3)C=C(C(=O)N3CCN(Cc4ccccc4)CC3)O2)cc1)NO,inactive: 1.03
12,CC(C)NC(=O)N(C)C[C@@H]1Oc2c(NC(=O)NC3CCCCC3)cccc2C(=O)N([C@H](C)CO)C[C@H]1C,inactive: 0.985
13,COc1ccc(S(=O)(=O)N(C)C[C@@H]2OCCCC[C@@H](C)Oc3ccc(NS(=O)(=O)c4ccc(Cl)cc4)cc3C(=O)N([C@@H](C)CO)C[C@H]2C)cc1,inactive: 1.03
14,C[C@H]1CN([C@@H](C)CO)C(=O)Cc2cc(NC(=O)Nc3ccccc3)ccc2O[C@@H]1CN(C)Cc1ccc(C(=O)Nc2ccccc2N)cc1,inactive: 0.994
15,O=C(C[C@@H]1C[C@@H]2c3cc(NS(=O)(=O)c4ccc(F)cc4)ccc3O[C@@H]2[C@H](CO)O1)NCc1ccccc1F,inactive: 0.989
16,COc1ccccc1CNC(=O)C[C@H]1C[C@@H]2c3cc(NS(=O)(=O)c4ccc(F)cc4)ccc3O[C@@H]2[C@@H](CO)O1,inactive: 0.998
17,COc1ccc(S(=O)(=O)Nc2ccc3c(c2)C(=O)N([C@@H](C)CO)C[C@H](C)[C@@H](CN(C)C(=O)NC2CCCCC2)OCCCC[C@@H](C)O3)cc1,inactive: 1.01
18,CCCCCCCCCCCCCCCCC(C(=O)O)C(O)(CC(=O)O)C(=O)O (centres undefined),inactive: 0.963
19,C[C@H]1CN([C@@H](C)CO)C(=O)Cc2cc(NC(=O)C3CC3)ccc2O[C@@H]1CN(C)C(=O)NC1CCCCC1,inactive: 0.98
